{
  "source": "paper PMC4336329",
  "about": "(PLoS ONE, 2015)",
  "note": "Screen size: about 310,000 compounds; about 14,000 (4.5%) showed an effect of 50% or more. Effects have a minus sign here. Some of the results follow.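 Also: peak tail current of the secondary pulse compared with the same well before compound.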",
  "data": [
    {"molecular_target": "human ether-à-go-go-related gene (hERG) potassium channel (human, UniProt Q12809)", "sequence (Q12809 whole entry, looked up)": "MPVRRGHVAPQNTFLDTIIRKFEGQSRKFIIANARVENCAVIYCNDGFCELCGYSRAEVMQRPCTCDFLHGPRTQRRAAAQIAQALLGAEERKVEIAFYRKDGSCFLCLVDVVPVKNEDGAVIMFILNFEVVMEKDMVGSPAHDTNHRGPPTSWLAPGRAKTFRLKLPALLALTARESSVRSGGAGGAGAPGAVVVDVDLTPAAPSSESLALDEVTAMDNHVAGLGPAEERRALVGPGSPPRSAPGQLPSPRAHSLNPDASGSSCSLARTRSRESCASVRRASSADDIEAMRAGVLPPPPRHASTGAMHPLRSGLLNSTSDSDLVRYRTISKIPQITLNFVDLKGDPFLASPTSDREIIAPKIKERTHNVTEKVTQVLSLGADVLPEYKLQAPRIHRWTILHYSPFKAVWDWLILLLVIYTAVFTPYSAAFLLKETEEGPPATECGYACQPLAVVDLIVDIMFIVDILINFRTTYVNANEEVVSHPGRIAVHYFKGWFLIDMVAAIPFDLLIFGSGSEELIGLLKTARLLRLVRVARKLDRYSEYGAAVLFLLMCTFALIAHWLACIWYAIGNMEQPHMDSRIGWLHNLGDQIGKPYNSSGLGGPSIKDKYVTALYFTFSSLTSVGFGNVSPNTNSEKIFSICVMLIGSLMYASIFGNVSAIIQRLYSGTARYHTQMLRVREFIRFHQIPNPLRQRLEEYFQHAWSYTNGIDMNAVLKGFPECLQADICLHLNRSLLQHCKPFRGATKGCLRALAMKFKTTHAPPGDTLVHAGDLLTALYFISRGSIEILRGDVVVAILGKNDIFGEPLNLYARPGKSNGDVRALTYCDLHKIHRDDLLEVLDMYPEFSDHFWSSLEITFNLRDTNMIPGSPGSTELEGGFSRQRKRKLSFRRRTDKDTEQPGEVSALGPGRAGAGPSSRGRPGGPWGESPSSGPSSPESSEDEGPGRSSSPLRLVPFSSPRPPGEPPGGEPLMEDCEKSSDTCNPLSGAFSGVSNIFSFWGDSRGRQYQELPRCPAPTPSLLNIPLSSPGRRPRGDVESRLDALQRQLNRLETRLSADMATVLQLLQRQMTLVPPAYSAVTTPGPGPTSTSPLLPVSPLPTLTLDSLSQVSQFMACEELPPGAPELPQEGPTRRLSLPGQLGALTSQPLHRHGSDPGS", "experiment": "primary screen, population patch clamp on CHO cells stably expressing hERG", "units": {"hERG current change (%, negative = inhibition) at 10uM": "%"}, "values": [
      {"smiles": "O=C(Nc1ccc(Cl)c(Cl)c1)Nc1ccc(N2CCCC2)c(S(=O)(=O)Nc2ccccc2Cl)c1", "hERG current change (%, negative = inhibition) at 10uM": 6.44},
      {"smiles": "S=C1c2ccccc2CN1c1ccccc1", "hERG current change (%, negative = inhibition) at 10uM": 1.58},
      {"smiles": "O=c1[nH]c(Nc2ccccn2)cc2ccccc12", "hERG current change (%, negative = inhibition) at 10uM": 8.27},
      {"smiles": "COc1ccc(NC2CCCN(C(=O)CN3C(=O)c4ccccc4C3=O)C2)cc1OC", "note": "(stereo not drawn)", "hERG current change (%, negative = inhibition) at 10uM": 14},
      {"smiles": "Cc1cccc(NC(=O)CSc2nc(=O)n(CCCN3CCOCC3)c3c2CCCC3)c1", "hERG current change (%, negative = inhibition) at 10uM": -42.4},
      {"smiles": "C=CCCCCCCCCC(=O)NN", "hERG current change (%, negative = inhibition) at 10uM": 13.4},
      {"smiles": "CCOC(=O)Cc1csc(NC(=O)NC2(C(F)(F)F)Oc3ccc(Cl)cc3O2)n1", "note": "(stereo not drawn)", "hERG current change (%, negative = inhibition) at 10uM": 15.8},
      {"smiles": "CC(C(=O)NCC1CCCCC1)N1CCc2ccccc2C1", "note": "(stereo not drawn)", "hERG current change (%, negative = inhibition) at 10uM": -1.3},
      {"smiles": "O=[N+]([O-])c1cccc(Cl)c1NCCNS(=O)(=O)c1ccc(Cl)cc1", "hERG current change (%, negative = inhibition) at 10uM": -23},
      {"smiles": "O=C(c1cc(S(=O)(=O)N2CCOCC2)ccc1F)N1CCCc2ccccc21", "hERG current change (%, negative = inhibition) at 10uM": -8.23},
      {"smiles": "CCSc1nc(N2CCCCC2)c2c(c1C#N)CCCC2", "hERG current change (%, negative = inhibition) at 10uM": 0.658},
      {"smiles": "COCCN(C(=O)CNC(=O)c1cccs1)C(C(=O)NC(C)(C)C)c1ccccc1", "note": "(stereo not drawn)", "hERG current change (%, negative = inhibition) at 10uM": 8.27},
      {"smiles": "O=C(Nc1ccc(Cl)c(Cl)c1)C1CCN(C(=O)c2ccco2)CC1", "hERG current change (%, negative = inhibition) at 10uM": -33.3},
      {"smiles": "CC(C(=O)NC(C)(C)C)N(Cc1cccs1)C(=O)CCN1CCc2ccccc21", "note": "(stereo not drawn)", "hERG current change (%, negative = inhibition) at 10uM": 7.38},
      {"smiles": "CC(NS(=O)(=O)c1cc2c3c(c1)CCC(=O)N3CCC2)c1ccccc1", "note": "(stereo not drawn)", "hERG current change (%, negative = inhibition) at 10uM": -2.75},
      {"smiles": "O=C(NCc1ccc(F)cc1)C1CCN(S(=O)(=O)c2cccc3nonc23)CC1", "hERG current change (%, negative = inhibition) at 10uM": 6.77},
      {"smiles": "CCOC(=O)CNS(=O)(=O)c1ccc2c3c(cccc13)C(=O)N2CC", "hERG current change (%, negative = inhibition) at 10uM": 21.9},
      {"smiles": "COc1ccc(-n2cc(C#N)c(=O)n(Cc3ccc(F)cc3)c2=O)cc1", "hERG current change (%, negative = inhibition) at 10uM": 7.54},
      {"smiles": "O=C(Cc1ccccc1)N1CCN(C(=O)c2ccco2)CC1", "hERG current change (%, negative = inhibition) at 10uM": 5.12},
      {"smiles": "COc1ccc(OS(=O)(=O)c2c(C)noc2C)cc1", "hERG current change (%, negative = inhibition) at 10uM": -1.5},
      {"smiles": "CC(C)C(=O)Nc1nnc(SCC(=O)NC2CCCC2)s1", "hERG current change (%, negative = inhibition) at 10uM": 4.35},
      {"smiles": "CCOC(=O)CCCN1CC(O)=C(c2nc(-c3ccc(Cl)cc3)cs2)C1=N", "hERG current change (%, negative = inhibition) at 10uM": -25.9},
      {"smiles": "Cc1nc2cc(NCc3ccccc3O)ccc2n1Cc1ccccc1", "hERG current change (%, negative = inhibition) at 10uM": 13.8},
      {"smiles": "CCc1ccccc1NC(=S)N1CCN(c2cccc(OC)c2)CC1", "hERG current change (%, negative = inhibition) at 10uM": 24.7},
      {"smiles": "O=S(=O)(c1ccccc1)N1CCN(Cc2ccc(Cl)cc2)CC1", "hERG current change (%, negative = inhibition) at 10uM": -22.7},
      {"smiles": "Cc1[nH]n(-c2ccccc2)c(=O)c1/C=N/N1C(=O)c2cccc3cccc(c23)C1=O", "hERG current change (%, negative = inhibition) at 10uM": 3.73},
      {"smiles": "CC(=O)Nc1ccc(S(=O)(=O)Nn2cnnc2)cc1", "hERG current change (%, negative = inhibition) at 10uM": 15.6},
      {"smiles": "CSc1ccc(CN2CCCC(N3CCN(c4ccccc4)CC3)C2)cc1", "note": "(stereo not drawn)", "hERG current change (%, negative = inhibition) at 10uM": -64.2},
      {"smiles": "COc1ccc(N=Cc2c(O)n(Cc3cccs3)c(=O)[nH]c2=O)cc1", "hERG current change (%, negative = inhibition) at 10uM": 10.4},
      {"smiles": "CC(=O)Nc1cccc(NC(=O)CSc2nccn2Cc2ccco2)c1", "hERG current change (%, negative = inhibition) at 10uM": 14},
      {"smiles": "O=C(c1ccc(F)cc1)C1CCN(C(=S)Nc2ccccc2Cl)CC1", "hERG current change (%, negative = inhibition) at 10uM": 0.35},
      {"smiles": "CCOc1ccccc1NC(=O)CCNC(=O)c1ccc(Cl)cc1", "hERG current change (%, negative = inhibition) at 10uM": 5.74},
      {"smiles": "O=S(=O)(c1cc(Cl)ccc1Cl)n1nnc2ccccc21", "hERG current change (%, negative = inhibition) at 10uM": 9.97},
      {"smiles": "C=CCn1c(=O)n2ncnc2c2c3c(sc21)CCCC3", "hERG current change (%, negative = inhibition) at 10uM": -59.3},
      {"smiles": "Cc1ccc(-n2nnnc2SCC(=O)NC2CC2)cc1C", "hERG current change (%, negative = inhibition) at 10uM": -9.55},
      {"smiles": "CC1CCCCC1NC(=O)c1ccc(S(=O)(=O)NCC2CCCO2)cc1", "note": "(stereo not drawn)", "hERG current change (%, negative = inhibition) at 10uM": -10.7},
      {"smiles": "O=C(NCCN1CCOCC1)c1csc2c1CCCC2", "hERG current change (%, negative = inhibition) at 10uM": -11},
      {"smiles": "NC(=O)C1CCCN1S(=O)(=O)c1ccc2ccccc2c1", "note": "(stereo not drawn)", "hERG current change (%, negative = inhibition) at 10uM": -22.5},
      {"smiles": "Cn1c(=O)c2c(ncn2CC(=O)N2CCCc3ccccc32)n(C)c1=O", "hERG current change (%, negative = inhibition) at 10uM": -3.3},
      {"smiles": "CN(C)c1ccc(NC(=O)N2CCOCC2)cc1", "hERG current change (%, negative = inhibition) at 10uM": -3.34},
      {"smiles": "O=C(CCN1CCN(C/C=C/c2ccccc2)CC1)Nc1ccc(Cl)cc1", "hERG current change (%, negative = inhibition) at 10uM": -78.2},
      {"smiles": "N#Cc1ccc(OCC(=O)N2CCN(S(=O)(=O)c3cccc(Cl)c3)CC2)cc1", "hERG current change (%, negative = inhibition) at 10uM": -71.4},
      {"smiles": "Brc1ccc2[nH]c3c(NCc4ccccn4)ncnc3c2c1", "hERG current change (%, negative = inhibition) at 10uM": -11.1},
      {"smiles": "CCOc1ccccc1NC(=O)CCNS(=O)(=O)c1cccc2nonc12", "hERG current change (%, negative = inhibition) at 10uM": 2.65},
      {"smiles": "Cc1ccc(S(=O)(=O)Nc2cccc(-c3ccc(N4CCCCCC4)nn3)c2)c(C)c1", "hERG current change (%, negative = inhibition) at 10uM": 13.6}
    ]}
  ]
}
